Source: patent publication US20260199499A1, “ANTI-PDL1 ANTIBODY-DRUG CONJUGATE AND USE” (SHANGHAI HENLIUS BIOTECH, INC., priority 2023, published 2026)

How the values were obtained:
[1] = system: PDL1-positive cells NCI-H292; test: Affinity of anti-PDL1 antibody-drug conjugate for PDL1-positive cells (flow cytometry); type: binding
BXPC-3 = test: Cell killing activity (CellTiter-Glo); type: cell-based, human; conditions: BXPC-3, 72 hours
NCI-H441 = test: Cell killing activity (CellTiter-Glo); type: cell-based; conditions: NCI-H441, 72 hours
[2] = system: human PDL1-positive liver cancer LD1-0011-200617 PDX; test: Anti-tumor effect, LD1-0011-200617 PDX xenograft; type: in vivo, NU/NU mice; conditions: once a week for three doses, day 21
[3] = system: PDL1-negative tumor MDA-MB-468 cells; test: Bystander effect assay (supernatant of PDL1-overexpressing HEK293 cells on MDA-MB-468 cells); type: cell-based; conditions: 96 hours
[4] = system: human PDL1-positive esophageal squamous carcinoma LD1-0015-362448 PDX; test: Anti-tumor effect, LD1-0015-362448 PDX xenograft; type: in vivo, Balb/c nude mice; conditions: 10 mg/kg, once a week for three doses, day 45
[5] = system: low-PDL1-expressing human pancreatic cancer BxPC3 cells; test: Anti-tumor activity, subcutaneous BxPC3 model; type: in vivo, NCG mouse; conditions: 8 mg/kg, once a week for three doses, day 35
human macrophages = type: cell-based; conditions: high concentrations (500 nM), 96 hours, IFN-γ
Method: (§1) Since some human immune cells such as antigen-presenting cells (macrophages, dendritic cells, etc.) express PDL1, the immunotoxicity of PDL1-targeted antibody-conjugated drugs is an inevitable problem. Human dendritic cells and macrophages, after induced differentiation, were digested and viable cells were counted using Vi-Cell XR cytometer. The cell suspension was adjusted to an appropriate concentration with a culture medium. 80 μl/well of the cell suspension was added to a cell culture plate, which was supplemented with 500 IU/mL of IFN-γ. The test drug was diluted with a gradient (5-fold dilutions). 20 μl of each of the diluted test articles was taken and added to the cell suspension in the cell culture plate, and the cell culture plate was placed in an incubator and cultured for 96 hours. 50 μl/well of a CellTiter-Glo solution (purchased from Promega) that had been thawed in advance and equilibrated to room temperature was added according to CellTiter-Glo operation instructions. The wells were mixed uniformly with a microwell plate shaker for 2 minutes and maintained at room temperature for 10 minutes. The […] signal was measured using Envision 2104 plate reader. SGN-PDL1V was used as one of the control molecules and was disclosed in U.S. Patent No. US 20210101982 A1.

human dendritic cells = type: cell-based; conditions: high concentrations (500 nM), 96 hours, IFN-γ
Method: as §1

[6] = system: human PDL1-positive head and neck squamous carcinoma LD1-2023-411020 PDX; test: Anti-tumor effect, LD1-2023-411020 PDX xenograft; type: in vivo, NCG mice; conditions: 10 mg/kg, once a week for three doses, day 28
[7] = system: human PDL1-positive gastric cancer LD1-0017-200636 PDX; test: Anti-tumor effect, LD1-0017-200636 PDX xenograft; type: in vivo, NU/NU mice; conditions: 10 mg/kg, once a week for three doses, day 21
Method: (§2) A human-derived PDL1-positive gastric cancer LD1-0017-200636 model was revived in NU/NU mice. Once the tumor had grown to 500-800 mm^3, the tumor tissue was surgically aseptically excised, and non-tumor tissues and necrotic tissues were removed. The tumor tissue was stripped and evenly cut into tissue blocks (about 30-60 mg) of about 3 mm×3 mm×3 mm in size, and then, which were inoculated subcutaneously on the right side of NU/NU mice. Once the average tumor volume of the mice for grouping reached 138.70 mm3, the mice were grouped randomly according to the size of the tumor volume, ensuring similar tumor volumes between groups. The day of grouping was defined as day 0. After the start of dosing, the body weight and tumor size of the mice were measured twice a week, and the mice were dosed once a week, for three doses. Clinical symptoms observed during the experiment were recorded. The tumor volume was calculated according to the following formula: tumor volume (mm3)=½×(a×b2) (wherein a represented the long diameter, and b represented the short diameter).

[8] = system: PDL1-positive cells NCI-H292; test: Internalization into PDL1-positive cells (pHrodo labeling, flow cytometry); type: cell-based; conditions: for incubation time at which the proportion of internalization reached the peak: NCI-H292
[9] = system: human PDL1-positive cervical cancer LD1-0010-200614 PDX; test: Anti-tumor effect, LD1-0010-200614 PDX xenograft; type: in vivo, Balb/c nude mice; conditions: 10 mg/kg, once a week for three doses, day 35
Method: as §2, with “cervical” for “gastric”, “LD1-0010-200614” for “LD1-0017-200636”, “Balb/c nude” for “NU/NU”, “25-35” for “30-60”, “146.74” for “138.70”

[10] = system: human PDL1-positive colorectal cancer LD1-2013-362125 PDX; test: Anti-tumor effect, LD1-2013-362125 PDX xenograft; type: in vivo, NU/NU mice; conditions: 10 mg/kg, once a week for three doses, day 31
Method: as §2, with “colorectal” for “gastric”, “LD1-2013-362125” for “LD1-0017-200636”, “25-35” for “30-60”, “156.99” for “138.70”

[11] = system: PDL1-positive cells NCI-H441; test: Affinity of anti-PDL1 antibody-drug conjugate for PDL1-positive cells (flow cytometry); type: binding
NCI-H292 = test: Cell killing activity (CellTiter-Glo); type: cell-based; conditions: NCI-H292, 72 hours
[12] = system: human non-small cell lung cancer LU6437 PDX; test: Anti-tumor effect, LU6437 PDX xenograft; type: in vivo, BALB/c nude mice; conditions: once a week for three doses, day 21
Method: A revived tumor tissue was harvested from HuPrime® lung cancer xenograft model LU6437 tumor-bearing mice and cut into tumor blocks with a diameter of 2-3 mm, which were inoculated subcutaneously at the right anterior scapula of BALB/c nude mice. […] The average volume was 253.70 mm^3 in the actual groups. The day of grouping was defined as day 0. After the start of dosing, the mice were dosed once a week, for three doses, and the body weight and tumor size of the mice were measured twice a week. Clinical symptoms observed during the experiment were recorded. The tumor volume was calculated according to the following formula: tumor volume (mm3)=½×(a×b2) (wherein a represented the long diameter, and b represented the short diameter).

[13] = system: human breast cancer MDA-MB-231 cells; test: Anti-tumor activity, subcutaneous MDA-MB-231 model; type: in vivo, NCG mouse; conditions: once a week for three doses, day 35
rat PDL1 ECD = target: T1, rat PDL1 ECD (Rattus norvegicus, UniProt D4AE25); test: Cross-binding activity to PDL1 ECD (ELISA)
T1 construct: Extracellular domains (ECDs) of PDL1s derived from human, cynomolgus monkey, rat, and mouse
T1 sequence (D4AE25 19-239): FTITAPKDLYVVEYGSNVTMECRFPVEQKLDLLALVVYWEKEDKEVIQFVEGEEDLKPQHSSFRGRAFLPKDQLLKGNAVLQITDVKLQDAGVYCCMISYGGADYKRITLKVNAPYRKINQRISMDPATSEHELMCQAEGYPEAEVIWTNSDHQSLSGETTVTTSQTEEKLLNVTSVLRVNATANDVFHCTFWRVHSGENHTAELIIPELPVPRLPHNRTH

B1: MAB20-LP62 (DAR8): antibody-drug conjugate formed by conjugation of anti-PDL1 antibody MAB20 to linker-toxin LP62, n=8 (conjugate)
heavy: EVQLVQSGGGLVKPGGSLRLSCAASGFTFSSYTMNWVRQAPGKGLEWVSSISSGSDYLYYADSVKGRFTISRDNAKNSLYLQMNSLRAEDTAVYYCARNELRWYPQAGAFDRWGQGTMVTVSSASTKGPSVFPLAPSSKSTSGGTAALGCLVKDYFPEPVTVSWNSGALTSGVHTFPAVLQSSGLYSLSSVVTVPSSSLGTQTYICNVNHKPSNTKVDKKV[human IgG1 Fc with changes not shown]
light: QSVVTQPPSMSAAPGQRVTISCSGSSSYIESSYVGWYQQLPGTAPRLLIYDDDMRPSGIPDRFSGSKSGTSATLAITGLQTGDEADYYCEIWRSGLGGVFGGGTKLTVLSQPKAAPSVTLFPPSSEELQANKATLVCLISDFYPGAVTVAWKADSSPVKAGVETTTPSKQSNNKYAASSYLSLTPEQWKSHKSYSCQVTHEGSTVERTVALTEC
affinity compared with unconjugated antibody MAB20 [1]: comparable | affinity for PDL1-positive cells [1]: better affinity | cell killing effect (BXPC-3): stronger cell killing effects | cell killing effect (NCI-H441): stronger cell killing effects | TGI ([2]; 3 mg/kg): 75.24% | TGI ([2]; 10 mg/kg): 89.51% | bystander effect [3]: significant bystander effect | TGI [4]: 92.02% | TGI [5]: 40.9% | cytotoxicity to macrophages (human macrophages): did not show significant cytotoxicity | cytotoxicity to dendritic cells (human dendritic cells): did not show significant cytotoxicity | TGI [6]: 102.31% | TGI [7]: 108.18% | incubation time at which the proportion of internalization reached the peak [8]: 4 h | internalization ([8]; NCI-H292, compared with IgG1 isotype control): can effectively bind the PDL1 antigen on the cell surface and be internalized into the intracellular lysosomal pathway | TGI [9]: 109.33% | TGI [10]: 101.59% | affinity for PDL1-positive cells [11]: better affinity | cell killing effect (NCI-H292): stronger cell killing effects | TGI ([12]; 3 mg/kg): 43.23% | TGI ([12]; 8 mg/kg): 106.85% | tumor growth inhibition rate (TGI) ([13]; 3 mg/kg): 80.33% | tumor growth inhibition rate (TGI) ([13]; 8 mg/kg): 92.91% | binding (rat PDL1 ECD): weak specific binding

B2: MAB20: anti-PDL1 antibody, heavy chain SEQ ID NO: 9, light chain SEQ ID NO: 10 (antibody)
heavy: EVQLVQSGGGLVKPGGSLRLSCAASGFTFSSYTMNWVRQAPGKGLEWVSSISSGSDYLYYADSVKGRFTISRDNAKNSLYLQMNSLRAEDTAVYYCARNELRWYPQAGAFDRWGQGTMVTVSSASTKGPSVFPLAPSSKSTSGGTAALGCLVKDYFPEPVTVSWNSGALTSGVHTFPAVLQSSGLYSLSSVVTVPSSSLGTQTYICNVNHKPSNTKVDKKV[human IgG1 Fc with changes not shown]
light: B1 light
modifications: MAB20 HC; MAB20 LC
TGI ([2]; 10 mg/kg): 30.3% | TGI [7]: 14.89% | incubation time at which the proportion of internalization reached the peak [8]: 4 h | TGI [9]: 67.38% | TGI [10]: 50.27% | tumor growth inhibition rate (TGI) ([13]; 8 mg/kg): 21.26%
